Assay results reported in the supplement of paper PMC3334620.
The full ranking holds about 33,000 sequences; the median of “E-score (-0.5 to 0.5)” is about -0.012, and the highest 2% start at about 0.27. The list shows a part of the results.

Molecular target: T1, Vhr1 (UniProt P40522)
T1 sequence: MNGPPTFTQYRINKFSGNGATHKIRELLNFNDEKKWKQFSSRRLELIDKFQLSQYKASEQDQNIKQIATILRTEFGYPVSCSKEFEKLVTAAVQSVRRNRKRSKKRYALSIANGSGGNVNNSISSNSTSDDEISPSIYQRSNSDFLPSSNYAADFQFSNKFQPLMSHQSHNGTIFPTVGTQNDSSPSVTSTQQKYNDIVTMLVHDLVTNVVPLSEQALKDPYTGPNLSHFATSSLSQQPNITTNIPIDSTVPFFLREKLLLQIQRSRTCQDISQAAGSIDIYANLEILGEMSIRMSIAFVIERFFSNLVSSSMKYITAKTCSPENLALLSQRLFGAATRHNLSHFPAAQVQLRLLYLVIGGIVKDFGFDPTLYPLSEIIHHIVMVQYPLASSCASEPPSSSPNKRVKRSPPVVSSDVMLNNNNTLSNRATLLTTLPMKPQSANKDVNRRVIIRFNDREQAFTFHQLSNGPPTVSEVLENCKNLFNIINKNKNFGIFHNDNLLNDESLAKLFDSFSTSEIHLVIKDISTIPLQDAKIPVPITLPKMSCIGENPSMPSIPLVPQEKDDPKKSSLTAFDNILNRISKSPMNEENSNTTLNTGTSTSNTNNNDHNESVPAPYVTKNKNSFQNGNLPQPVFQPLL
Assay: PBM E-score (8-mer binding enrichment) (E-score (-0.5 to 0.5)); higher = stronger / more preferred TF binding; most listed sequences are background and not binding sites
Conditions: protein concentration: 200 nM; construct: GST-full length
Experimental: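 Universal 'all 10-mer' protein binding microarrays (Agilent AMADID 015681) probed with GST-tagged S. cerevisiae TFs (full-length or DBD) made by in vitro transcription/translation (PURExpress), about 100-200 nM. Bound TF was detected with fluorescent anti-GST. Each ungapped 8-mer (which stands for itself and its reverse complement) is scored by the PBM enrichment score (E-score), a modified Wilcoxon-Mann-Whitney statistic from -0.5 to +0.5, computed with the Universal PBM Analysis Suite. Scale: above 0.35 generally sequence-specific binding.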

Sequence	PBM E-score
AGACAAAG	-0.215
AACTTTAT	0.0379
TAATAACA	-0.0306
GCCATGTA	0.127
ACGATCCA	0.19
AGTATTTA	-0.0913
AGCTAGCT	0.0198
AACACGGT	0.0558
GAGGAGGC	-0.241
CTGAAACA	-0.0117
ATGGTAGA	0.021
CTTCAAAC	-0.146
AGCTAGTA	0.153
GCGATGAA	-0.00187
AGAAATAC	-0.118
AGGATACG	-0.122
CTTTCTTC	-0.0742
CGATGTAG	-0.0137
AACAAATT	0.0774
CTAACGGA	-0.0572
GGAACATA	0.0536
ATCCGTAC	0.18
ACATGCAA	0.114
CGATGAAC	0.00701
ACAAGTGG	-0.0165

Sequence	PBM E-score
CCTCGCGA	-0.0849
AGGCGGTC	-0.0553
CACGTGGC	-0.0825
CCTGTTTA	-0.0807
CGAGTAAG	0.211
GGACCACC	0.216
GGCCCACA	-0.121
CTTAAACC	-0.307
GACAATCA	0.119
ACTTCGAT	-0.0101
CGCTACTC	0.00036
AAGGGGTG	-0.0467
GCCTGCAA	-0.161
AGTGTAGC	0.121
AGAGCTAG	-0.118
CTAGAGGA	-0.203
GTAGTCAC	0.441
CCGTTCCC	-0.0166
ACAGCAAT	0.159
GAGCAGCA	0.0652
ATACGATC	0.102
GATCTGCC	0.0186
AAAGAATC	-0.0736
GAATGAGA	-0.0378
AGCATGGG	0.0586

Sequence	PBM E-score
GAAAAGTA	-0.214
AATGTGCA	0.00473
TTGCGAAA	-0.0287
AAGTTTCC	-0.155
AAGCAAGC	-0.0171
AGTGAGCG	-0.093
GTAAATAC	-0.118
GGAGTGCA	0.14
CATCCTCG	0.124
AGCGTTCC	-0.25
GATTAATC	0.161
CTATTGAG	0.264
CTGGTCCC	-0.123
CCAACGAG	-0.0488
AACTATTA	0.0476
ACTTAATG	0.0392
ATATTATG	0.324
GTCGCTAA	0.0364
ATATGCAA	-0.0627
AGGGCTCG	-0.079
AAGAAATG	0.0307
CCTCACCA	-0.00516
ACCGAGGG	-0.193
AAGTGGTA	-0.0867
ATTTTTGA	-0.212

Sequence	PBM E-score
CTACTCTA	0.0199
CGATTAAA	-0.0467
GATCTGAC	0.148
ATTTGGTA	0.163
CCCGGGTC	0.0813
AGCGCGGC	-0.00462
CGGGTAAA	0.119
ACGCATCT	0.0947
GCATGTCC	-0.0226
CAGTCGCA	0.0715
TGTAGACA	0.109
CATGATAA	0.108
CGGCTCAG	0.197
CTGTTCTA	-0.0435
ACGCATAG	0.00357
CTCGGAAC	-0.0788
ATCGTGTA	0.0348
CTGCCACC	-0.0905
ACAAGCGC	-0.0276
ACCGAATC	-0.0188
TTTCGAAA	-0.309
AGGTACTG	-0.0757
GGGACCAC	0.134
ATTAGACA	-0.0949
ACGGAGAT	-0.0922

Sequence	PBM E-score
AGCCGATG	0.0352
AAATTAAC	-0.00361
CACACCTA	0.14
CGGGGCCA	0.0148
ACTGGCAT	0.0495
CAATTATG	-0.0832
ACGCATAT	0.09
CCTCGTTC	-0.062
TATTACGA	0.0546
ATATTGAT	0.155
AATCCCAA	-0.21
ATCAAACA	0.186
ACACTTCT	-0.00042
AGGGCGGC	-0.147
ATTGATAG	-0.0457
CCATATAC	0.145
CAGCAGTC	0.0874
ATATAACA	0.124
CTATGAAA	-0.0617
TACAACAA	0.113
CGCTGAGA	-0.0877
TGCGTACA	0.0334
ACTGTCCG	0.0325
CTGTGGTA	0.0391
AACCTTAC	0.0697

Sequence	PBM E-score
GCCAGAAA	0.00743
GTTCATAA	0.11
GTCTGTTA	0.121
AATCTACC	-0.0187
GACACCTA	0.00679
ACAAGAAT	-0.152
CAGAGCAG	0.0312
ACGGCCCG	0.00779
AATTGTAC	0.127
CAACATAC	0.06
GAGTGCGA	0.0178
CTTAAGCC	-0.234
ACTTCACA	-0.0867
CCCAACGC	-0.044
CTGGGAAC	0.157
ACTTTGGA	0.0908
GGTTTAAC	-0.0583
GCATCCAC	0.0832
ACTCTCTC	0.0707
ATGCGTTG	-0.0731
AGTATACA	0.0667
ACTGTTTG	0.0135
GACTTAAA	-0.28
GACACAGA	0.0346
CAGCCTAA	-0.181

Sequence	PBM E-score
AAGGGACT	-0.0238
AAGACTAT	0.139
AAGATTCA	0.138
CCAACTAC	0.111
CCGCTCAG	-0.0643
CCATCGAG	0.0908
TATTAATA	0.17
CTCCTCGA	-0.118
ACGGACAC	0.0877
CAACACGG	0.16
CTTCGCGC	0.107
CAGGTTCA	0.0551
CTGGACTA	-0.0239
CCAAGGAG	-0.147
CGTGTGAA	-0.00085
GCGATCTA	0.00878
ATCGAGAC	0.0749
AGCCATAT	0.0836
ATCGTGCA	0.0684
AATGGTTA	0.118
CCACGCCG	-0.0762
ACGTACTC	0.138
